Laboratory results as given in patent US20230069996A1 (Chugai, published 2023).

T1: IL-12, composed of p40 and p35 (human (the free comparator is printed …, UniProt P29460 23-328; P29459 23-219)
T1 sequence 1: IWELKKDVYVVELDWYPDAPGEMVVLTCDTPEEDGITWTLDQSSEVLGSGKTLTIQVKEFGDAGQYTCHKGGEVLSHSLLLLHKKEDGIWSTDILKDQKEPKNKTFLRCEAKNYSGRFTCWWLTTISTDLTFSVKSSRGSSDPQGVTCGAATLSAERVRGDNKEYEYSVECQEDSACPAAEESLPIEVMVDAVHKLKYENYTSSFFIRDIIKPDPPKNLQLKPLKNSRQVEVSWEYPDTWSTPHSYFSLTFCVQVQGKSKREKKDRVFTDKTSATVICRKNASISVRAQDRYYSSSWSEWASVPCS
T1 sequence 2: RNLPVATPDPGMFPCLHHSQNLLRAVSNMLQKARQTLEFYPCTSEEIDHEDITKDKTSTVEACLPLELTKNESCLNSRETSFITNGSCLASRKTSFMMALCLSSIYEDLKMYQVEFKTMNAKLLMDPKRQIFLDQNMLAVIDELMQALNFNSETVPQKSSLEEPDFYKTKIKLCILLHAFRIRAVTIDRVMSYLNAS

T2: IL-22 receptors on COLO205 cells (UniProt Q8N6P7 16-574; Q08334 20-325, limits assumed)
T2 sequence (looked up) 1: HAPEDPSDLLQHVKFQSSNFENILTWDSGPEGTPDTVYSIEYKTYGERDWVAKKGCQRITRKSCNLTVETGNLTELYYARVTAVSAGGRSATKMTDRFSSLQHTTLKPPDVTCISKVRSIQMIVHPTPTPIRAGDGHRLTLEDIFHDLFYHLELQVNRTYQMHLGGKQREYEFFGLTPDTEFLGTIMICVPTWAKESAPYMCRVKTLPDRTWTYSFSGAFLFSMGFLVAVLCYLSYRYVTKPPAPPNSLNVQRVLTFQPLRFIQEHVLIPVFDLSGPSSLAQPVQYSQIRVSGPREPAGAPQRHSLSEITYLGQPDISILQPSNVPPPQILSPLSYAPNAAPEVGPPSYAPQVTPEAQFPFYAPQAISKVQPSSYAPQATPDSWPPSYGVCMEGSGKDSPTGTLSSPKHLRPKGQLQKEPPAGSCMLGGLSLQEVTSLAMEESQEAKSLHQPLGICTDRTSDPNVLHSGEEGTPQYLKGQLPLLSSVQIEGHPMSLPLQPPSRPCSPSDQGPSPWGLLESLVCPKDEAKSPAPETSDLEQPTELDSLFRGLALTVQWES
T2 sequence (looked up) 2: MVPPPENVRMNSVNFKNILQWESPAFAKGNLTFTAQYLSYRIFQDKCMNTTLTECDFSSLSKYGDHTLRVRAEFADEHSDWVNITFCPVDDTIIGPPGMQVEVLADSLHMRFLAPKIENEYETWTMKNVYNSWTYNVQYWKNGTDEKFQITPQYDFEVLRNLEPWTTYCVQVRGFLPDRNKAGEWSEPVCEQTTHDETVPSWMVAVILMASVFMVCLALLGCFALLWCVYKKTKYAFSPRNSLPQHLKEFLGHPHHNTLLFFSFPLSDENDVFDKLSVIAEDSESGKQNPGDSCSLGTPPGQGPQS


What was measured:
Assay in all cases: cell-based or functional assay
[1] = target: T1, IL-12, composed of p40 and p35
[2] = target: T2, IL-22 receptors on COLO205 cells
[3] = target: T2, IL-22 receptors on COLO205 cells; remark: listed apart in the source

Binder | EC50 (read off the curve) of IL-10 secretion by COLO205 cells, intact fusion without uPA [2] | EC50 (read off the curve) of IL-10 secretion by COLO205 cells, fusion pre-digested with uPA [3] | also measured
F4 monovalent IL-12 fusion Ustk (other) light chain 1 (UstkVL): [no letters for about 200 residues] heavy chain 1 (UstKVH, cleavable linker, constant region, GS linker, single-chain IL-12; knob): EVQLVQSGAEVKKPGESLKISCKGSGYSFTTYWLGWVRQMPGKGLDWIGIMSPVDSDIRYSPSFQGQVTMSVDKSITTAYLQWNSLKASDTAMYYCARRRPGQGYFDFWGQGTLVTVSSTSTSGRSANPRGASTKGPSVFPLAPSSKSTSGGTAALGCLVKDYFPEPVTVSWNSGALTSGVHTFPAVLQSSGLYSLSSVVTVPSSSLGTQTYICNVNHKPSNTKVDKRVGGGGSGGGGSEPKSCDKTHTCPPCPAPELRRGPSVFLFPPKPKDTLMISRTPEVTCVVVDVSHEDPEVKFNWYVDGVEVHNAKTKPREEQYNSTYRVVSVLTVLHQDWLNGKEYKCKVSNKALPAPIEKTISKAKGQPREPQVCTLPPSREEMTKNQVSLWCLVKGFYPSDIAVEWESNGQPENNYKTTPPVLDSDGSFFLYSKLTVDKSRWQQGNVFSCSVMHEALHNRYTQKSLSLSPGGSGGSGGSGGSGGSGGSIWELKKDVYVVELDWYPDAPGEMVVLTCDTPEEDGITWTLDQSSEVLGSGKTLTIQVKEFGDAGQYTCHKGGEVLSHSLLLLHKKEDGIWSTDILKDQKEPKNKTFLRCEAKNYSGRFTCWWLTTISTDLTFSVKSSRGSSDPQGVTCGAATLSAERVRGDNKEYEYSVECQEDSACPAAEESLPIEVMVDAVHKLKYENYTSSFFIRDIIKPDPPKNLQLKPLKNSRQVEVSWEYPDTWSTPHSYFSLTFCVQVQGKSKREKKDRVFTDKTSATVICRKNASISVRAQDRYYSSSWSEWASVPCSGGGGSGGGGSGGGGSGGGGSRNLPVATPDPGMFPCLHHSQNLLRAVSNMLQKARQTLEFYPCTSEEIDHEDITKDKTSTVEACLPLELTKNESCLNSRETSFITNGSCLASRKTSFMMALCLSSIYEDLKMYQVEFKTMNAKLLMDPKRQIFLDQNMLAVIDELMQALNFNSETVPQKSSLEEPDFYKTKIKLCILLHAFRIRAVTIDRVMSYLNAS light chain 2 (anti-KLH VH with human kappa constant region, CrossMab): QVQLQQSGPQLVRPGASVKISCKASGYSFTSYWMHWVNQRPGQGLEWIGMIDPSYSETRLNQKFKDKATLTVDKSSSTAYMQLSSPTSEDSAVYYCALYGNYFDYWGQGTTLTVSSASVAAPSVFIFPPSDEQLKSGTASVVCLLNNFYPREAKVQWKVDNALQSGNSQESVTEQDSKDSTYSLSSTLTLSKADYEKHKVYACEVTHQGLSSPVTKSFNRGEC heavy chain 2 (anti-KLH VL and modified IgG1 Fc; hole): DIQMTQSSSSFSVSLGDRVTITCKASEDIYNRLAWYQQKPGNAPRLLISGATSLETGVPSRFSGSGSGKDYTLSITSLQTEDVATYYCQQYWSTPYTFGGGTKLEVKSSASTKGPSVFPLAPSSKSTSGGTAALGCLVKDYFPEPVTVSWNSGALTSGVHTFPAVLQSSGLYSLSSVVTVPSSSLGTQTYICNVNHKPSNTKVDKRVGGGGSGGGGSEPKSCDKTHTCPPCPAPELRRGPSVFLFPPKPKDTLMISRTPEVTCVVVDVSHEDPEVKFNWYVDGVEVHNAKTKPREEQYNSTYRVVSVLTVLHQDWLNGKEYKCKVSNKALPAPIEKTISKAKGQPREPQVYTLPPSRCEMTKNQVSLSCAVKGFYPSDIAVEWESNGQPENNYKTTPPVLDSDGSFFLVSKLTVDKSRWQQGNVFSCSVMHEALHNHYTQKSLSLSP | – | – | EC50 (read off the curve) of the IL-12 luciferase reporter activity of the fusion pre-treated with MTSP1 [1]: ~0.3 nM
087B03-L1-C1-L3-IL22 (other) light: QAALTQPASVSGSPGQSITISCTGASGDVGAYNFVSWYQQHPGKAPKLIIYDVNKRPSGVSNRFSGSKSGNTASLTISGLQAEDEADYYCSSYTSTFSVVFGGGTKLTVLGQPKAAPSVTLFPPSSEELQANKATLVCLISDFYPGAVTVAWKADSSPVKAGVETTTPSKQSNNKYAASSYLSLTPEQWKSHRSYSCQVTHEGSTVEKTVAPTECS heavy: EVQLVESGGGVVRPGGSLRLSCAASGFTFDDYGMNWVRQAPGKGLEWVSGVNWNGGTRDYAASVKGRFTISRDNAKNSLYLQMNSLRAEDTALYHCARGWYSGAAWNMGYWGRGTLVTVSSTSTSGRSANPRGASTKGPSVFPLAPSSKSTSGGTAALGCLVKDYFPEPVTVSWNSGALTSGVHTFPAVLQSSGLYSLSSVVTVPSSSLGTQTYICNVNHKPSNTKVDKRVGGGGSGGGGS[no letters for human IgG1 Fc with changes]GSTSTSGRSANPRGGGSAPISSHCRLDKSNFQQPYITNRTFMLAKEASLADNNTDVRLIGEKLFHGVSMSERCYLMKQVLNFTLEEVLFPQSDRFQPYMQEVVPFLARLSNRLSTCHIEGDDLHIQRNVQKLKDTVKKLGESGEIKAIGELDLLFMSLRNACI | ~1 nM | – | –
087B03-L1-C2-L3-IL22 (other) light: QAALTQPASVSGSPGQSITISCTGASGDVGAYNFVSWYQQHPGKAPKLIIYDVNKRPSGVSNRFSGSKSGNTASLTISGLQAEDEADYYCSSYTSTFSVVFGGGTKLTVLGQPKAAPSVTLFPPSSEELQANKATLVCLISDFYPGAVTVAWKADSSPVKAGVETTTPSKQSNNKYAASSYLSLTPEQWKSHRSYSCQVTHEGSTVEKTVAPTECS heavy: EVQLVESGGGVVRPGGSLRLSCAASGFTFDDYGMNWVRQAPGKGLEWVSGVNWNGGTRDYAASVKGRFTISRDNAKNSLYLQMNSLRAEDTALYHCARGWYSGAAWNMGYWGRGTLVTVSSTSTSGRSANPRGASTKGPSVFPLAPSSKSTSGGTAALGCLVKDYFPEPVTVSWNSGALTSGVHTFPAVLQSSGLYSLSSVVTVPSSSLGTQTYICNVNHKPSNTKVDKRVEPKSCGGGGSGGGGS[no letters for human IgG1 Fc with changes]GSTSTSGRSANPRGGGSAPISSHCRLDKSNFQQPYITNRTFMLAKEASLADNNTDVRLIGEKLFHGVSMSERCYLMKQVLNFTLEEVLFPQSDRFQPYMQEVVPFLARLSNRLSTCHIEGDDLHIQRNVQKLKDTVKKLGESGEIKAIGELDLLFMSLRNACI | – | ~0.02 nM | –

Further lines, with some results ahead:

EC50 (read off the curve) of IL-10 secretion by COLO205 cells, intact fusion without uPA [2] | EC50 (read off the curve) of IL-10 secretion by COLO205 cells, fusion pre-digested with uPA [3] | Binder | also measured
~1 nM | – | 087B03-L1-C3-L3-IL22 (other) light: QAALTQPASVSGSPGQSITISCTGASGDVGAYNFVSWYQQHPGKAPKLIIYDVNKRPSGVSNRFSGSKSGNTASLTISGLQAEDEADYYCSSYTSTFSVVFGGGTKLTVLGQPKAAPSVTLFPPSSEELQANKATLVCLISDFYPGAVTVAWKADSSPVKAGVETTTPSKQSNNKYAASSYLSLTPEQWKSHRSYSCQVTHEGSTVEKTVAPTESS heavy: EVQLVESGGGVVRPGGSLRLSCAASGFTFDDYGMNWVRQAPGKGLEWVSGVNWNGGTRDYAASVKGRFTISRDNAKNSLYLQMNSLRAEDTALYHCARGWYSGAAWNMGYWGRGTLVTVSSTSTSGRSANPRGASTKGPSVFPLAPSSKSTSGGTAALGCLVKDYFPEPVTVSWNSGALTSGVHTFPAVLQSSGLYSLSSVVTVPSSSLGTQTYICNVNHKPSNTKVDKRVGGGGSGGGGS[no letters for human IgG1 Fc with changes]GSTSTSGRSANPRGGGSAPISSHCRLDKSNFQQPYITNRTFMLAKEASLADNNTDVRLIGEKLFHGVSMSERCYLMKQVLNFTLEEVLFPQSDRFQPYMQEVVPFLARLSNRLSTCHIEGDDLHIQRNVQKLKDTVKKLGESGEIKAIGELDLLFMSLRNACI | –
– | ~0.02 nM | 087B03-L1-C4-L3-IL22 (other) light: QAALTQPASVSGSPGQSITISCTGASGDVGAYNFVSWYQQHPGKAPKLIIYDVNKRPSGVSNRFSGSKSGNTASLTISGLQAEDEADYYCSSYTSTFSVVFGGGTKLTVLGQPKAAPSVTLFPPSSEELQANKATLVCLISDFYPGAVTVAWKADSSPVKAGVETTTPSKQSNNKYAASSYLSLTPEQWKSHRSYSCQVTHEGSTVEKTVAPTECS heavy: EVQLVESGGGVVRPGGSLRLSCAASGFTFDDYGMNWVRQAPGKGLEWVSGVNWNGGTRDYAASVKGRFTISRDNAKNSLYLQMNSLRAEDTALYHCARGWYSGAAWNMGYWGRGTLVTVSSTSTSGRSANPRGASTKGPSVFPLAPCSKSTSGGTAALGCLVKDYFPEPVTVSWNSGALTSGVHTFPAVLQSSGLYSLSSVVTVPSSSLGTQTYICNVNHKPSNTKVDKRVGGGGSGGGGS[no letters for human IgG1 Fc with changes]GSTSTSGRSANPRGGGSAPISSHCRLDKSNFQQPYITNRTFMLAKEASLADNNTDVRLIGEKLFHGVSMSERCYLMKQVLNFTLEEVLFPQSDRFQPYMQEVVPFLARLSNRLSTCHIEGDDLHIQRNVQKLKDTVKKLGESGEIKAIGELDLLFMSLRNACI | –
